Sequences with one replicate were seen in a single cluster, so their values are uncertain.
Each sequence was assayed on ATP (assay: switch fluorescence ratio, 500 uM ATP over buffer (Cy3 cluster intensity, sum of 5 cycles each) (fold (ratio)); higher = stronger signal-on switching upon ATP binding; sequences stand for … in TCGTCGGCAGCGTCAGATGTGTATAAGAGACAGTTTTTTTTTTTTTTTTTTTTTTTTT…TC). Settings: aptamer strand: ATP DNA aptamer (quencher-CACCTGGGGGAGTATTGCGGAGGAAGG + anchor), 100 nM annealed; ATP concentration: 500 uM; one replicate.
Method in brief: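 Clusters with intensities outside 100-1000 RFU were excluded. The remaining Cy3-labelled switching-strand clusters on a modified Illumina MiSeq flow-cell had been annealed to 100 nM quencher-labelled ATP aptamer and imaged in selection buffer, then after 15 min with 500 uM ATP at 22 °C, for five cycles separated by NaOH stripping and re-annealing. The fluorescence ratio, averaged per switch-domain sequence, is each cluster's summed target-cycle Cy3 intensity over its summed buffer-cycle Cy3 intensity.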
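Note: ATP exposure 15 min at 22 °C before imaging.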

Sequence | switch fluorescence ratio
ATCCAGATCG | 1.04
ATCCATACCA | 1.04
ATCCCATTTT | 1.04
ATCCCCATCG | 1.04
ATCCCGCTCT | 0.95
ATCCCTTAGG | 1.62
ATCCGACTTG | 1.02
ATCCGCTTTT | 1.81
ATCCGGATGT | 0.967
ATCCGGCCTG | 1
ATCCTATTAG | 1.01
ATCCTCCTTA | 1.12
ATCCTGAAGG | 1.07
ATCCTGTCTT | 1.06
ATCCTGTGGG | 1.03
ATCCTGTTAC | 1.1
ATCCTTAGAA | 1.02
ATCGAACTT | 1
ATCGACGCCT | 1.05
ATCGACTTGA | 1.02
ATCGATACAT | 1.03
ATCGCCATGG | 1.04
ATCGCGAACT | 1.03
ATCGCGATG | 0.993
ATCGCTGAGC | 1.03
ATCGCTGTGG | 1.02

Sequence | switch fluorescence ratio
ATCGGAAGAG | 0.976
ATCGGAAGAT | 0.971
ATCGGAAGGT | 0.998
ATCGGAGCTG | 0.997
ATCGGCAAAC | 2.07
ATCGGCTTGA | 1.01
ATCGGCTTGT | 0.984
ATCGGGCCGT | 0.975
ATCGGGTAGG | 1
ATCGGGTCAG | 0.999
ATCGGTTTT | 0.989
ATCGGTTTTT | 0.997
ATCGTAATCT | 1.05
ATCGTAGAG | 0.945
ATCGTAGATG | 1.04
ATCGTATGT | 1.04
ATCGTCAACC | 1.09
ATCGTCCT | 1.04
ATCGTGATCA | 1.03
ATCGTGGTGA | 1.01
ATCGTGTACG | 0.96
ATCGTGTTC | 0.95
ATCGTTATAG | 0.983
ATCGTTGCGC | 0.96
ATCGTTGGTG | 0.923
ATCTACAATT | 1.04

Sequence | switch fluorescence ratio
ATCTACGCAG | 1.33
ATCTCAAATA | 1.01
ATCTCACCTA | 1.05
ATCTCACGTA | 1.21
ATCTCGGGAT | 0.943
ATCTCTTTG | 1.03
ATCTCTTTGC | 1.06
ATCTGAACGA | 0.965
ATCTGAATTA | 1.07
ATCTGAGAGT | 0.989
ATCTGCAGGG | 0.974
ATCTGCGACG | 1.03
ATCTGGGCTA | 1.04
ATCTGGTCAC | 0.998
ATCTGTCGCA | 0.966
ATCTGTTGCA | 1.09
ATCTTAAGC | 0.972
ATCTTAGCCT | 1.07
ATCTTAGGTG | 1.05
ATCTTGATGT | 0.972
ATCTTGCTGC | 1.01
ATCTTGGCA | 0.998
ATCTTTCCCG | 1.05
ATCTTTGGA | 1.03
ATCTTTTTTT | 1.01
ATGAAACAGT | 0.979

Sequence | switch fluorescence ratio
ATGAAAGGCG | 1.04
ATGAACATAT | 0.996
ATGAACCAGT | 1.03
ATGAACGCTT | 1.05
ATGAAGCTCG | 0.984
ATGAAGGTAC | 0.975
ATGAAGTCGG | 0.986
ATGAAGTGTG | 0.99
ATGAATCACC | 1.03
ATGACAAATC | 0.983
ATGACCACCG | 1.02
ATGACGCCT | 0.951
ATGACGCTCT | 0.949
ATGACTACTT | 0.964
ATGAGAAATA | 1.04
ATGAGACAGT | 0.995
ATGAGAGTGT | 0.956
ATGAGATT | 1.03
ATGAGGATC | 0.981
ATGAGGCGCA | 0.983
ATGAGGGA | 1.04
ATGAGGTGTC | 1.02
ATGAGTAACC | 0.961
